Measured values: publication PMC4336329 (PLoS ONE, 2015)
About 2,200 (0.71%) of roughly 310,000 compounds showed an effect of 50% or more. Effects have a minus sign here. Some of the results follow.

Target: human ether-à-go-go-related gene (hERG) potassium channel (human, UniProt Q12809)
Assay: primary screen, population patch clamp on CHO cells stably expressing hERG

human ether-à-go-go-related gene (hERG) potassium channel, sequence (Q12809 whole entry, looked up): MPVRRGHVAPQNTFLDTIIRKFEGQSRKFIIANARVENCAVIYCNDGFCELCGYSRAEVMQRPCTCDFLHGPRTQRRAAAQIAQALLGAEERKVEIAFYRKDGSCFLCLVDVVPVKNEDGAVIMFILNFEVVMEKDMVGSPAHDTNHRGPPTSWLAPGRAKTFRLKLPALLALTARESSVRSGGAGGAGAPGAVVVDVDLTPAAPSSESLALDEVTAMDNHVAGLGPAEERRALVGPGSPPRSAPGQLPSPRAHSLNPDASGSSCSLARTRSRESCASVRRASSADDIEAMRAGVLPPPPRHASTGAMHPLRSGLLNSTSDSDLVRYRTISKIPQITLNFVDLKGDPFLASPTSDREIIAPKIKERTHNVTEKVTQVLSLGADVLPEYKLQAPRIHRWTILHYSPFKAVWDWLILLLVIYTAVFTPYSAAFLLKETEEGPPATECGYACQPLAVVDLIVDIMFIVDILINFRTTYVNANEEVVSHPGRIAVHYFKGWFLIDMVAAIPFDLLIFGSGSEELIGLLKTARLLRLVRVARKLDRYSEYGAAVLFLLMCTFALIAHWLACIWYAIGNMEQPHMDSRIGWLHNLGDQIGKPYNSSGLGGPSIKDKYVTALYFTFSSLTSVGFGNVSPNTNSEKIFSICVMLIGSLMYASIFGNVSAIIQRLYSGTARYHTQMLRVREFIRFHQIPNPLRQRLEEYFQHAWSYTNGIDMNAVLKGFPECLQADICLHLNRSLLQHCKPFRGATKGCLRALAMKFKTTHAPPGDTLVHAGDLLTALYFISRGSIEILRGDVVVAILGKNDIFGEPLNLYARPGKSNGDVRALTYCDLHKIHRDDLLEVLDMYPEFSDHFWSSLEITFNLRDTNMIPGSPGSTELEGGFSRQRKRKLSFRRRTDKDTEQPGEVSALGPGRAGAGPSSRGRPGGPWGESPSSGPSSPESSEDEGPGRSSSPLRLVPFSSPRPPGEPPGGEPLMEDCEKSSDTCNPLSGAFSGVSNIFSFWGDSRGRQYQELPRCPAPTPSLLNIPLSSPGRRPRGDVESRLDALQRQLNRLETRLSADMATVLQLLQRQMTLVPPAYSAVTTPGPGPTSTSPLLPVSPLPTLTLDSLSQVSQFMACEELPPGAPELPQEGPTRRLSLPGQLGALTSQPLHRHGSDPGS

SMILES | hERG current change (%, negative = inhibition) at 1uM
CCC(C)NC(C(=O)Nc1ccc(Cl)c([N+](=O)[O-])c1)c1ccccc1.O=C(O)C(=O)O (stereo not drawn) | 10.3%
O=S(=O)(c1ccccc1Cl)N1CCC(Cc2ccccc2)CC1 | 13.5%
COc1ccc(OC)c(Cc2nnc(CCC(=O)N3CCCCC3)o2)c1 | 6.27%
Nc1ccc(SCc2cccnc2)cc1 | 14.6%
C=CCNC(=O)c1ccc(CN2CCC(Cc3ccccc3)CC2)cc1 | -33.2%
CC1(C)C(=O)OC(C(=O)c2ccccc2)C(C)(C)C1=O (stereo not drawn) | -1.38%
[O-][n+]1onc2c3ccnnc3ccc21 | 14.5%
CC(=O)Nc1cc(Cl)c(N=Cc2ccc(O)cc2O)cc1Cl | 0.663%
O=C(O)C1CCC(=O)N1Cc1ccc(F)cc1 (stereo not drawn) | 5.96%
O=c1[nH]c(Cc2ccccc2)nc2scc(-c3ccccc3)c12 | 15.5%
CCOC(=O)c1cnn(CCOC(=O)c2ccc(OC)cc2)c1NC(=O)c1ccc(OC)cc1 | -2.54%
O=Cc1c(NCc2ccc(Cl)cc2)c2ccccc2[nH]c1=O | -0.961%
O=C1c2ccccc2S(=O)(=O)c2cc(N3CCc4ccccc4C3)ccc21 | 4.99%
CCC(=O)Nc1ccc(-n2nnnc2SCC(=O)NNC(=O)c2ccco2)cc1 | 14.5%
CCOC(=O)C1=C(C)N(c2ccccc2)C(=O)/C1=C\c1ccco1 | 6.63%
COc1ccc(OCCn2cc(/C=N/NC(=O)c3ccncc3)c3ccccc32)cc1 | -3.83%
CSc1ccccc1NC(=O)CN(C)CC(=O)Nc1ccc(Cl)cc1[N+](=O)[O-] | 4.26%
Cc1ccc(S(=O)(=O)C(C#N)c2nc3ccccc3nc2N2CCN(C)CC2)cc1 (stereo not drawn) | 4.94%
O=C(Cc1cccc2ccccc12)NN1C(=O)CSC1=S | 6.4%
Cn1cnc2cc(NCc3ccccc3Cl)ccc21 | 6.75%
CCN(CC(=O)N1CCN(c2ccccc2)CC1)S(=O)(=O)c1ccc(C)cc1 | 11.5%
CCCc1ccc(S(=O)(=O)Nc2ccc(C)c(NS(C)(=O)=O)c2)cc1 | -4.59%

SMILES | hERG current change (%, negative = inhibition) at 1uM
Cc1cc(Nc2ccccc2)n(CCC#N)n1 | 8.23%
CC(Oc1ccc(Cl)cc1Cl)C(=O)N(C)c1ccccc1 (stereo not drawn) | 1.7%
CCCCn1c(SCC(=O)Nc2nnc(C(C)C)s2)nc2c1c(=O)n(C)c(=O)n2C | 4.78%
CN(C)c1nc2c(c(=O)[nH]c(=O)n2C)n1Cc1ccccc1Br | 8.32%
COc1ccc(-c2cc(C(=O)c3c(N)n(C)c(=O)n(C)c3=O)c3ccccc3n2)cc1OC | 9.69%
COc1ccc(Cl)cc1NC(=O)C/C(C)=N/NC(=O)CC#N | 7.26%
CCOC(=O)C1=C(c2ccccc2)NC(=S)NC1c1cccc([N+](=O)[O-])c1 (stereo not drawn) | 8.14%
Cn1c(=O)c2c(O)c(Cc3ccccc3)c(=O)n(C)c2n(C)c1=O | 15.8%
Cc1cc(C)cc(NC(=O)C(c2ccccc2)N2CCN(CC(=O)NC3CC3)CC2)c1 (stereo not drawn) | 1.32%
COc1ccc(NC(=O)NCc2cccnc2)cc1 | 6.55%
CN(CC(=O)Nc1ccccc1C(F)(F)F)C(=O)Cn1c(=O)oc2ccccc21 | 7.4%
Cc1ccc(C)c(SCC(=O)NCc2ccco2)c1 | 6.59%
CCN(CC)C(=O)NC(c1ccc(C)c(F)c1)C(Cl)(Cl)Cl (stereo not drawn) | 11.6%
COc1ccccc1C(CCN(Cc1ccccc1)C(C)=O)c1ccco1 (stereo not drawn) | 6.77%
COc1cccc(CN2CCNC(=O)C2CC(=O)N(C)CC2CCOCC2)c1 (stereo not drawn) | 14.8%
Cc1cc(NC(=O)CCC(=O)N(CC(=O)NC2CCCC2)c2ccc(C)c(F)c2)no1 | 16%
COc1ccc(CCNC(=O)c2cccs2)cc1OC | 30.7%
CC(c1ccccn1)N(C)C(=O)c1ccc2nc(Cc3ccccc3F)oc2c1 (stereo not drawn) | 14.8%
COc1cccc(OC)c1C(=O)Nc1cc(C)on1 | 10.6%
Cc1nn(-c2ccc(F)cc2)c(Cl)c1C(=O)OC(C)C(=O)N(C)C1CCCCC1 (stereo not drawn) | 0.754%
COC(=O)c1ccc(Sc2ccc(Cl)cc2)c(N)c1 | 3.06%
CC1=CC(C)(C)N(C(=O)CSc2nnc(-c3ccccc3)o2)c2ccc(C)cc21 | 10.9%

SMILES | hERG current change (%, negative = inhibition) at 1uM
Fc1ccc(CN2CCN(c3ncnc4scc(-c5ccccc5)c34)CC2)cc1 | -5.01%
CCn1c(SCC(=O)Nc2cc(Cl)ccc2OC)nnc1C1CC1 | 12.8%
O=C1CC(c2ccco2)CC(O)=C1C=NCCN1CCN(C(=S)Nc2ccccc2)CC1 (stereo not drawn) | -0.843%
O=C(Oc1ccc(Cl)cc1)c1ccc(COC(=O)c2cnccn2)cc1 | 13.7%
CCC(=O)N1c2ccccc2-c2nnc(SC)nc2OC1c1ccc(N(C)C)cc1 (stereo not drawn) | 10.9%
COc1ccc(CCNC(=O)c2cc3c(=O)n4ccccc4nc3n(CCCN3CCOCC3)c2=N)cc1OC | -39.4%
CCC(=O)Nc1ccc(C2=Nn3c(nnc3C(C)C)SC2)cc1.Cl | 17.9%
COc1ccc(C2C(C#N)=C(N)SC(N)=C2C#N)cc1OC | 10.2%
CCCCCCCNC(=O)C1(CC2CC(c3cccc(Br)c3)=NO2)CCN(C(=O)Cc2ccc(F)cc2)CC1 (stereo not drawn) | 5.8%
CCCN(CC(=O)c1cc(C)n(C)c1C)S(=O)(=O)c1cccc(C(F)(F)F)c1 | 1.52%
O=C(CN1CCCC1)NC(=O)NC1CCCC1 | 5.7%
CCN(CC)C(=O)c1cc(S(=O)(=O)N2CCCCC2)c[nH]1 | 15.2%
CC(C)OCCCN(CC(O)c1ccccc1)CC(O)c1ccccc1.O=C(O)C(=O)O (stereo not drawn) | -0.211%
CN(c1ccc(C(=O)O)cc1)S(=O)(=O)c1ccc(Cl)cc1 | 8.08%
COC(=O)c1ccccc1NC(=O)Nc1ccc2c(c1)OCO2 | 7.67%
Cc1ccc(N2CC(C(=O)NCc3cccs3)CC2=O)cc1 (stereo not drawn) | 1.16%
COC(=O)C1=C(C(=O)OC)[C@@H]2N(C)c3ccccc3[C@@]23C[C@@H](C(=O)OC)N(C(=O)COCc2ccccc2)C3=N1 | 8.35%
Cc1ccc(NC(=O)c2ccccc2-c2ccc(C(F)(F)F)cc2)cc1S(=O)(=O)N1CCOCC1 | 8.12%
O=C(Nc1cccc(S(=O)(=O)N2CCOCC2)c1)c1cnn2c(C(F)F)cc(-c3ccccc3)nc12 | 16.4%
c1ccc(-c2nnc(N3CCN(c4ccccc4)CC3)nc2-c2ccccc2)cc1 | 7.67%
O=C(Nc1ccc2c(c1)OCO2)c1cc(-c2ccccc2Cl)on1 | 17.3%
CCN(CC)P(=O)(c1nccn1C)N(CC)CC | 14.2%

SMILES | hERG current change (%, negative = inhibition) at 1uM
CN1CCN(c2nc(C(N)=O)cc(-c3ccccc3)n2)CC1 | -18.4%
N#Cc1nc(-c2ccc(OCc3ccccc3)cc2)oc1N1CCOCC1 | 10.4%
Fc1ccccc1CNC(=S)Nc1ccc(Cl)cc1 | 22%
O=C(Cn1cnc([N+](=O)[O-])c1)NC1CCCC1 | 11.6%
CCN(Cc1cc2ccccc2[nH]c1=O)C(=O)c1cccc([N+](=O)[O-])c1 | 8.31%
COc1ccccc1N1CCN(C2CCCN(C(=O)CN3CCCC3=O)C2)CC1 (stereo not drawn) | 14.4%
Cc1cc2nccc(-c3ccc(Cl)cc3Cl)n2n1 | 4.9%
Cc1cc(OCC(=O)NCc2ccccn2)c2c(C)c(C)c(=O)oc2c1 | 8.77%
S=C(NCC(c1cccnc1)N1CCOCC1)NC1CCCCC1 (stereo not drawn) | 5.43%
CC1(C)CC(=O)C(N=Nc2cccc([N+](=O)[O-])c2)=C(O)C1 | 7.71%
CCOC(=O)c1sc(NC(=O)CSc2nnnn2-c2ccc(C)cc2C)nc1C | 17%
CN1CCCc2cc3c(C(F)(F)F)cc(=O)oc3nc21 | 14.3%
CC1(C)Cc2c(c(-c3ccco3)nc3sc4c(NCCCO)ncnc4c23)CO1 | 12.3%
COc1ccc(OC)c(NS(=O)(=O)c2ccc(NC(=O)c3ccc(NS(C)(=O)=O)cc3)cc2)c1 | 13%
C[C@]12N[C@H](Cc3ccccc31)c1ccccc12.O=C(O)/C=C\C(=O)O | 1.39%
O=C(COc1ccccc1Cl)Nc1ccc(NC(=O)c2ccco2)cc1 | 7.73%
Cc1ccc(N2CCN(Cc3ccccc3)CC2=O)c(C)c1.O=C(O)C(=O)O | 8%
CCOc1ccc(NC(=O)c2ccc(CN3CCc4ccccc4C3)cc2)cc1 | 10.2%
NS(=O)(=O)c1cc(C(=O)OC2CCOC2=O)ccc1Cl (stereo not drawn) | 14%
COc1ccc(NC(=O)CSc2ncn(-c3ccccc3)n2)cc1Cl | -8.44%
CC1CCCC(C)N1C(=O)c1ccc(CS(=O)(=O)c2ccccc2)cc1 (stereo not drawn) | 5.12%
